Laboratory results: PMC4336329 (PLoS ONE, 2015)
About 2,200 (0.71%) of roughly 310,000 compounds showed an effect of 50% or more. Effects have a minus sign here. Some of the results follow.

Target: human ether-à-go-go-related gene (hERG) potassium channel (human, UniProt Q12809)
Test: primary screen, population patch clamp on CHO cells stably expressing hERG

Sequence of human ether-à-go-go-related gene (hERG) potassium channel (Q12809 whole entry, looked up): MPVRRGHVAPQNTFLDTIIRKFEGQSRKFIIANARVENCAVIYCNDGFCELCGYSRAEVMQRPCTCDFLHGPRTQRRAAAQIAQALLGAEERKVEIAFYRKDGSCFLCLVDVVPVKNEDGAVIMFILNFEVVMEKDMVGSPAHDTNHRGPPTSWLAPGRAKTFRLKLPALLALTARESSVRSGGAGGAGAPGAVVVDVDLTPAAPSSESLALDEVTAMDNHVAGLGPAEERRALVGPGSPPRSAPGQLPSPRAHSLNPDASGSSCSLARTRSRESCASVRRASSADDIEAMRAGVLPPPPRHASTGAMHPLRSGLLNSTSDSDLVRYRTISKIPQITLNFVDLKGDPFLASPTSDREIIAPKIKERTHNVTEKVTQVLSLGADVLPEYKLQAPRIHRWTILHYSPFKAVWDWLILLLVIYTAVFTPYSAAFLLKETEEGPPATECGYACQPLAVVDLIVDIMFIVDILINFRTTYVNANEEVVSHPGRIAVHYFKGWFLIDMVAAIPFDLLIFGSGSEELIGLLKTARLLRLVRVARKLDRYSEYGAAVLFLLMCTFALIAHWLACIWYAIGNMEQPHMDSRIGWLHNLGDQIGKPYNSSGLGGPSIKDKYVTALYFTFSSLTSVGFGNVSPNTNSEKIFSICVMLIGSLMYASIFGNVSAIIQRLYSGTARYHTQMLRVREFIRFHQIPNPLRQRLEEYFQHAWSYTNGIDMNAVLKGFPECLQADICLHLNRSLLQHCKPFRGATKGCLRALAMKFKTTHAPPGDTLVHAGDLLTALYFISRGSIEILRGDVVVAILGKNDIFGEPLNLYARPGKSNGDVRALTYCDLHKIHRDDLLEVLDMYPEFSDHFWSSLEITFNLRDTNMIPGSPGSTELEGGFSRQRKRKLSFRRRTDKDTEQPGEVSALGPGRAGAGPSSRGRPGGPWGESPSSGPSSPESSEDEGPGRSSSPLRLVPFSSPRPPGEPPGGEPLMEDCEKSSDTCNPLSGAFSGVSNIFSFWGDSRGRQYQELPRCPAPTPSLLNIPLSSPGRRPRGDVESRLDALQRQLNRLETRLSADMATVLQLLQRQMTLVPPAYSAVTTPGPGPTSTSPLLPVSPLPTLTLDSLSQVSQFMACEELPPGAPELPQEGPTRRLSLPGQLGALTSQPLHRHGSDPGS

SMILES | hERG current change (%, negative = inhibition) at 1uM [%]
COc1ccc(CN2CCNC(=O)C2CC(=O)NCCc2nc(C)c(C)s2)c(OC)c1 (stereo not shown) | 10.3
Cl.NC(Cc1ccccc1)C(=O)N1CCCCC1 (stereo not shown) | 1.55
COc1ccc2c(c1)cc(C(=O)N/N=C/c1c(O)c(C(=O)O)cc3ccccc13)n2C | 13.9
COCCCn1c(=O)c2ccccc2n(Cc2cccc(C)c2)c1=O | 12.9
Cc1ccc(OCc2n[nH]c(=S)n2-c2ccc(Cl)cc2)cc1 | 11
COc1ccc(C2CC(c3cccs3)=NN2S(C)(=O)=O)cc1OC (stereo not shown) | 7.26
Cc1cccc2nc(CSc3nc4cc([N+](=O)[O-])ccc4s3)cn12 | 1.31
Nc1ccc2c(c1)C(=O)c1ccccc1-2 | 14.3
CCOc1ccccc1N(CC(=O)N1CCCC1)S(C)(=O)=O | 16.3
CCCCCC(=O)Nc1ccc(N2CCN(C(=O)c3ccccc3)CC2)cc1 | -21.9
CCOC(=O)c1cnc2nc(Cc3ccccc3)[nH]n2c1=O | 8.72
CC1(C)Cc2ccccc2C(c2cc3ccccc3oc2=O)=N1 | 1.69
O=c1[nH]ncn1-c1ccccc1C(F)(F)F | 10.3
O=C(N/C(=C\c1ccc(Br)cc1)c1nc2ccccc2[nH]1)c1ccco1 | 10.1
Cc1ccc2cc(CN(CCCO)S(=O)(=O)c3cccc4nsnc34)c(=O)[nH]c2c1 | 5.74
CCOc1ccc(S(=O)(=O)Nc2cccc(-c3ccc(N4CCCCCC4)nn3)c2)cc1 | 19
CC(=O)Oc1ccc(N(c2ccccc2)S(=O)(=O)c2ccc(C)cc2)cc1 | 6.3
Cc1ccc(C)c(C(=O)Nc2c(C(N)=O)oc3ccccc23)c1 | 4.71
Cc1cc(S(=O)(=O)NC2CC(C)(C)NC(C)(C)C2)c(Cl)cc1Cl | 7.69
COCCCNC(=O)Cn1nc(-c2ccc(C)cc2)ccc1=O | 13.7
Nn1c(SC/C=C/c2ccccc2)nnc1-c1ccco1 | 2.02
COCc1nc(-c2ccc(-c3ccc(C)cc3)nc2OC)no1 | 4.81
COc1ccccc1NC(=O)CC(=O)CSc1nnc(-c2ccc(C)cc2)n1-c1ccccc1 | 13.8
COc1ccc(S(=O)(=O)N2CCC(C(=O)N[C@@H](C)C(=O)NC3CCCC3)CC2)cc1 | 16.6
CCCCN(C)C(=O)c1cc2cc3cc(OC)ccc3nc2o1 | -0.194
